Data on 56 variants can be found in the RNAGym collection of RNA variant scans (doi:10.7554/elife.90254).

The source gives no read counts; variants with many changes may rest on few reads.

B1: LINE1-mini (parent)
chain: GGCAGAGCUCAACACAGCGUGGCAAAGUGGCUGUGGCUAGACUGCC

The data set covers variants of B1. Kind of data set: self-cleavage, relative activity (ratio to wild type); higher = more cleavage; in vitro, sequencing; the parent is a self-cleaving ribozyme.
AGCAUAGCUCAACACAGCGUGGCAAAGUGGCUGUGGUUAGACUGCC [G1A G5U C37U]: the self-cleavage turned out to be 0.04.
On to AGCAGAGCUCAACACAGCGUAGCAAAGUGGAUGUGGCUAGAGUGCC [G1A G21A C31A C42G], for which the self-cleavage came out at 0.02.
The figure for AGCAGAGCUCAACACAAGGUGGCAAAGUGGCUGUGGCUAGACUGCC [G1A G17A C18G] is 0.05; for AGCAGAGCUCAACACAGCGUAGCAAAGUGGCUCUGGCUAGACUGCU [G1A G21A G33C C46U] it is 0.09.
The figure for AGCAUAGCUCAACACAGCGUGGUAAAGUGGCUGUGGCUAGACUGCC [G1A G5U C23U] is 0.06; for AGCAGAGCUCAACACAGCCCGGCAAAGUGGCUGUGGCUAGACUGCC [G1A G19C U20C] it is 0.1.
The figure for AGCAGAGCUCAACAUAGCGUGGCAAAGUGGCUGUGGCUACACUGCC [G1A C15U G40C] is 0.06; for AGCAUAGCUCAGCACAGCGUGGCAAAGUGGCUGUGGCUAGUCUGCC [G1A G5U A12G A41U] it is 0.07.
Regarding AGCAGAGCUCAACACAGCGUGUCAAAGUGGCUGUGGAUAGACUGCC [G1A G22U C37A], the self-cleavage is 0.15.
As for AGCAGAGCUCAACAGAGCGUGGCAAAGUGCAUGUAGCUAGACUGCC [G1A C15G G30C C31A G35A], the self-cleavage was determined as 0.02.
For the variant AGCAAAGCUCAACACAGCGUGGCAAAGUGGCUGUGCCUAGACUGCC [G1A G5A G36C], the self-cleavage is 0.21.
To AGCACAGUUCAACGCAGCGUGGCCAACUGGCUGUGGCUAGACUGCC [G1A G5C C8U A14G A24C G27C] belongs 0.4.
The figure for AGCAGACGUCAACACAGCGUGACAAAGUGGGUGUGGCUAUACUGCU [G1A G7C C8G G22A C31G G40U C46U] is 0.03.
Turning to AGCAUAGCUCAGCAGAGCGUGGCAAAGUGGCUGUGGCUAGACUUCC [G1A G5U A12G C15G G44U], the self-cleavage worked out at 0.05.
To AGCAGAGCUCAACACAUCGUGGCAAAGUGGCUGUGGCUCAACUGCC [G1A G17U A39C G40A] belongs 0.02; to AGCAGAGCUCAACACAGCGUGCCAUAGUGGCUGUCGCUAGACUGCC [G1A G22C A25U G35C], 0.02.
The figure for AGCAGAGCUCAACACAGCGUGGUAUAGUGGCUGUGGCUAGACUGCC [G1A C23U A25U] is 1.11; for AGCAGAGCUCAACACAGCGUGGUAAAGUGGCUGUGGCCAGACUUAC [G1A C23U U38C G44U C45A] it is 0.03; for AGCAGAUCUAAACACAGCGUGGCAAAGUGGCUGUGGCGAGACUGCC [G1A G7U C10A U38G] it is 0.04.
The figure for AGCAGAGCUCAACACAGCGUGGCAAAGUGACUGGGGCUAGAGUGCC [G1A G30A U34G C42G] is 0.04.
AGCAGAGCUCAACAUAGCGUGGCCAACCGGCUGUGGCUAGACUGCC [G1A C15U A24C G27C U28C]: the self-cleavage came out at 2.51.
To AGCAGAGCUCAACACAGAGUGGCGAAGUGGCUGUGGCUAGACUGCC [G1A C18A A24G] belongs 0.09.
The figure for AGCAGAGCUCAACACAGCGUGGCAAAAUGGCUGUGGCGAGACUGCC [G1A G27A U38G] is 0.05; for AGCAGAGCUCAACACAGCGUGACAAAAUGGCUGUGGCUAGACUGCC [G1A G22A G27A] it is 0.13.
The figure for AGCACAGCUCUACACAGCUUGGCAUAGUGCAUGUGGCUAGUCUGCC [G1A G5C A11U G19U A25U G30C C31A A41U] is 0.01; for AGCAAAGCUCAACACAGCGUAGCAAAGUGGCUGUGGCUAGACUGCC [G1A G5A G21A] it is 0.17; for AUCAGAGCUUAACACAGCGUGGCAAAGCGGUUGUGGCUAAACUGCC [G1A G2U C10U U28C C31U G40A] it is 0.02.
For the variant AACAGACCUCAACACAGCGUGGCAAAGUGGUUGUGGCUAGACUGCC [G1A G2A G7C C31U], the self-cleavage was determined as 0.14.
To AGCAUAGCUCAACACAGCGUGGCAAAGUGGCUGUGGCUACACUGCC [G1A G5U G40C] belongs 0.01; to AGCACAGCUCAACACAGCGUGGCAAAGUGGCUGUGGCUAGACUCCC [G1A G5C G44C], 0.09; to AGCAGAAUUCAACACAGCGUGUGAAAGUGGCUGUGGCUAGACUGCC [G1A G7A C8U G22U C23G], 1.
For AGCAGAGCUCAACACAGCGUGGCAAAGUGAUUGUGGCUAGACUGCC [G1A G30A C31U], the self-cleavage came out at 0.22.
To AACAGAGCUCAACACAGCGUGGCAAAGUGGCUGUGGCGAGACUGCC [G1A G2A U38G] belongs 0.13.
The figure for AGCAGAGCUCAACACAGGGUGGCAAAGUGGCUGUGGAUAGACUGCC [G1A C18G C37A] is 0.04.
In the case of AUCAGAGCUCUACACAGCGUGGCAAAGUGGCUGUGGCUAGACAGCC [G1A G2U A11U U43A], the self-cleavage came to 0.01.
The figure for ACCAGAGAUCACCACAGAGUGGCAAUGUUGCUGUGGCCAGACUGCC [G1A G2C C8A A12C C18A A26U G29U U38C] is 0.01.
To AGCAGAGCUCAACACAGCGUGGCAAAGUGGGAGUGGCUAGACUGCC [G1A C31G U32A] belongs 0.07; to AGCAGAAUUCAACACAGCGCGGUAAAGUGGCUGUGUCUAGACUGAC [G1A G7A C8U U20C C23U G36U C45A], 0.7; to AGCAGAGCUCAACACAGCCUGGCAAAGUUGCUGUGGCUAGACUGGC [G1A G19C G29U C45G], 0.26.
The figure for AACAGAGCACAACACAGCCUGCCAAUGUGGCUAUGGCUAGACUGCC [G1A G2A U9A G19C G22C A26U G33A] is 0.24.
Consider AGCAGAGCUCAACACAGCGUGGCAAAAUGGUUGUGGCUAGACUGCC [G1A G27A C31U], for which the self-cleavage stood at 0.8.
As for AGCAGAGCUCAACACAGUGUGGCAAAGUGGCUGUGGCUAGACGGCC [G1A C18U U43G], the self-cleavage was determined as 0.03.
To ACCAGAGCUCAACACAGCGUGGAAAAGUGGCUGUGGCUAGACUGCC [G1A G2C C23A] belongs 0.17; to AGCAGAACUCAACACAGCAUGGCAAAGUGGCUGUGGCUAGACUGCC [G1A G7A G19A], 2.93; to AGCAGAGCUCAACACAGCGUGGCAAAAUGGCUAUGGCUAGACUGCC [G1A G27A G33A], 0.03.
For the variant AGCAGAGCUCAACACAGCGUUGCAAAGUGGCUCUGGCUAGACUGCC [G1A G21U G33C], the self-cleavage is 0.08.
The figure for ACCAGAGCUCAUAACAGCGUGGCAAAGUGGAUGUGGCUAGACUGCC [G1A G2C A12U C13A C31A] is 0.08.
The figure for AGCAGAUCUCAAUACAGCGUGGCAAAGUGGCUGUGGCUAGCCUGCC [G1A G7U C13U A41C] is 0.08; for AGCAGAGCUCAACACAGUGUGGGAAACUGGCUGUGGCUCGACUGCC [G1A C18U C23G G27C A39C] it is 0.04; for AGCAGAGCUCAACACAGUGUGGCAAACUGGCUGUGGCUAGACUGCC [G1A C18U G27C] it is 1.28.
Take AGCAGAGCUCAACACAGCGUGGCAAAGUUGCUCUGGUUAGACUGCC [G1A G29U G33C C37U]: the self-cleavage was 0.05.
To AGCAGAGCUCAACACAGCGUGCCUAAGUGGCUGCGGCUAGAGUGCC [G1A G22C A24U U34C C42G] belongs 0; to AGCAGAUCUCAACACAGCGUGGCAAAAUGGCUGUGGCUAGACUGCC [G1A G7U G27A], 0.19.
To AGCAAAGCUCAACACGGCGUGGCAAAGUGGCUGUGGCUAGACUGCC [G1A G5A A16G] belongs 0.15; to AGCAGAACUCAACACAGCGUGGCAAAGUGGCUGUGGCUAGAAUGCC [G1A G7A C42A], 0.15; to AGCAGAGCUCAACACAGCGUGGCAAAGUGCCUGUGGUUAGACUGCC [G1A G30C C37U], 0.11.
